Paper PMC12136788
Positions count from the first letter of the chain named. Some of the results follow.

T1: UNK ZnF1-3 (human, UniProt Q9C0B0 31-174)
T1 sequence: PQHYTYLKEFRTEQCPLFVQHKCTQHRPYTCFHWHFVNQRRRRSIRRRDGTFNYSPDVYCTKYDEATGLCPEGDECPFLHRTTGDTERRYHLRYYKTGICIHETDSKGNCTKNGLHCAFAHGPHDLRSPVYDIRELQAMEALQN

B1: chr2:217001844:217001845:+_ENSG00000079246_ENST00000392132|hu_hu|hu_hu_hu_mus_False|1_68 (ssRNA)
RNA: GGGAGUUCUACAGUCCGACGAUCACCAACUUGAGGAUUAGAUCUUUUGUCAUAAGCAUAUCGGACGAUGGCCACCAUGUUUAACUCAUCCAAAGCAUGAACGAGAGAGGAAAGGGCAACAGCUGCCGCCUCAUCAUCUCUUGCCAACAGAGGAUUGAGCAUCA
B2: chr14:28285125:28285126:+_ENSMUSG00000040651_ENSMUST00000022450|mus_hu|FALSE|FALSE (ssRNA)
RNA: GGGAGUUCUACAGUCCGACGAUCCUCGGAAAGCCGUUUCAUCUUCUCUUGUGUUGAAAAGAUAGGUGUGGAAACUGUACUGACAUAUGAAACAUUCUUUUGCUUCAAAAUCUCUUCUAUCUUCCUAGAAAAGAGAUUGUACUCCAACAGAGGAUUGAGCAUCA
B3: chr11:29607950:29607951:+_ENSMUSG00000020458_ENSMUST00000102843|mus_mus|motif|central (ssRNA)
RNA: GGGAGUUCUACAGUCCGACGAUCGGGUGAGGAAUCAUCCACGAGCUCACAGUGAUCAGGCACCGACUUCUCAAAUUUUGCGGUUUCUGAAUAAUUAGAGAACUCUGGACUUGGCUCAGUGGAGAGCUUUGUUUCUUUAAUUAACAACAGAGGAUUGAGCAUCA
B4: chr1:23374948:23374949:-_ENSMUSG00000026158_ENSMUST00000027343|mus_hu|FALSE|FALSE (ssRNA)
RNA: GGGAGUUCUACAGUCCGACGAUCCCAAAUCCUAAUACUCACAGAACACUAGGAAAGCAAAAACUGGCAUAUUAUGGGAACUAAAAAUGAGAAAGUGUUCCAUACUAUACUUAUUGGAACACAAUGUACAACAAAAGUGCUACUCAACAGAGGAUUGAGCAUCA
B5: chr14:76904430:76904431:+_ENSMUSG00000022010_ENSMUST00000022587|mus_mus|mus_mus_mus_hu_True|18_48 (ssRNA)
RNA: GGGAGUUCUACAGUCCGACGAUCUGCAGCCAAAAACACCCUCGUGGAAAAAAAGAGGGAACACCAGCAGCCUUGUAUAAGCUAGAUAAAACCGCCUGGCUUUCCGCAGCCCAGGGAGUGAGAACGGACGGCAGCCCUAAUUUACAACAGAGGAUUGAGCAUCA
B6: chr2:217001844:217001845:+_ENSG00000079246_ENST00000392132|hu_hu|hu_hu_hu_mus_False|18_108 (ssRNA)
RNA: B1 RNA with A27G, C72G, A120U, U123A, C126U, U138C, C139U
B7: chr18:52893488:52893489:-_ENSG00000196628_ENST00000354452|hu_hu|hu_hu_hu_mus_True|1_8 (ssRNA)
RNA: GGGAGUUCUACAGUCCGACGAUCUAUUUAGACCAUUUCCGCGGAGUUAUGGCAUUUACUCAGUGCUGAUAGGUGGAAAAACUACUUCAACAGGGAUUUUUUUUUUCCUUAAUACAUGCCAAGAUUGGUGUGGCUGUAAAAAUACAACAGAGGAUUGAGCAUCA
B8: chr9:14812383:14812384:-_ENSMUSG00000031934_ENSMUST00000164273|mus_mus|motif|central (ssRNA)
RNA: GGGAGUUCUACAGUCCGACGAUCAUAGCUCAAGUAGAUACAUGCCAACAGUAUAACCACAAAUGUCACCAGCCGGCAGCGGAUGUAUUUCAUGAUUAAAUGACUAGAGUUCUUUUUUGUCUUCAAGUACUGCUCCACGAUUGGCAACAGAGGAUUGAGCAUCA
B9: chr19:45826695:45826696:-_ENSMUSG00000025220_ENSMUST00000026243|mus_mus|motif|central (ssRNA)
RNA: GGGAGUUCUACAGUCCGACGAUCACCAAGUAUAACCACAUCCUUUGGAAAUCCUUCCAUUUUUGCAAUUUCAAAACAGCCGGACUUGCUGUAAAAUUCCAGAAUCCUUUUAUCAUCUGGUCUUACUUCACAGAAAGCCCCCCGCAACAGAGGAUUGAGCAUCA
B10: chr4:6323411:6323412:-_ENSMUSG00000028245_ENSMUST00000029910|mus_mus|FALSE|FALSE (ssRNA)
RNA: GGGAGUUCUACAGUCCGACGAUCAUAUUUUUAAUGUAGAAAAGAUGAACCUUUAGUAGCAUAAUGAAAUAUAAACCAUUGCUAUACACAGUAACAGACUUAAUGUUAUUAAGAAUCUGGGCACGCAGCACUGCCGAAAGGAACCAACAGAGGAUUGAGCAUCA
B11: 97413068_97416379_144_CDS_ENSG00000059573_ENST00000371224|human|control|control (ssRNA)
RNA: GGGAGUUCUACAGUCCGACGAUCCUUGACCCAGGGCAGAAGAUGUUGGUUGAAGGGCUGGAACCCACAGCGGUAAACUUGACUCAACAUGCUGCGAUGUGGUCACUAACCAAAGUAUCUUCCUCACCACCGCCGCCUUCGCCCCAACAGAGGAUUGAGCAUCA
B12: chr6:170626544:170626545:+_ENSG00000112584_ENST00000537664|hu_hu|motif|central (ssRNA)
RNA: GGGAGUUCUACAGUCCGACGAUCAGGGGUACAUCCAGGAUACUUGCUUCGGUGGUGCUCUGCCAGUUCUUUGAAAUUUACGGCUGUACAUAUAUGUGGGCAGGUACUUCCCACAAAUCCUUGCAAACCUCUCACACCCAUAACCAACAGAGGAUUGAGCAUCA
B13: chr4:76721835:76721836:+_ENSG00000138768_ENST00000264904|hu_mus|hu_hu_hu_mus_True|1_98 (ssRNA)
RNA: GGGAGUUCUACAGUCCGACGAUCGUUUGGCUGGGGUUCUGAGAUGCCUCUGGAAUAUAACUCAUGUUUGCUAAUAAAUCCUAGUUUCUCUAUGAAAUUCUCUUUGCCAAUCCUCUUCUCUAUUAGUUGCUUUAGUUCUCUUUCCAACAGAGGAUUGAGCAUCA
B14: 139069893_139071599_791_CDS_ENSG00000175110_ENST00000310776|human|control|control (ssRNA)
RNA: GGGAGUUCUACAGUCCGACGAUCAAUCUUUUUAUUAUUUACAAAAUACCACACCAUUCCACCAAAGUAUCUUGUUGAACGUAAAAGGUCAUAUUUUCCACGUUUAUCUAUAUCUUCAUAGGUCUUGUGAUGAACCUUGAUAUACAACAGAGGAUUGAGCAUCA
B15: chr1:76259871:76259872:+_ENSG00000137955_ENST00000319942|hu_mus|FALSE|FALSE (ssRNA)
RNA: GGGAGUUCUACAGUCCGACGAUCAUCCACCAUAUCUCCUGGUCUGUCUGCAAAUCCUCCCGUCUCUUCAUCUUGACACGCUAAGAUGAAACUUCGAAGCUUUUCUCUGUCAAUCCAAUGAAGUCUCCCGAUGAUCUUUAGGGACAACAGAGGAUUGAGCAUCA
B16: 90017295_90017415_685_3pUTR_ENSMUSG00000057706_ENSMUST00000082237|mouse|control|control (ssRNA)
RNA: GGGAGUUCUACAGUCCGACGAUCUGGAGAAGUGCUCUGCGGCAGAGAUGAUCUCCCUCCGAGCCAUAGCCACAUCCUCCUUCCUGCCCGUCACAACAAAGACAGGCUCCUCCCCGCGAACUGGGGUCUUGAUGUAAGUGUUGGCAACAGAGGAUUGAGCAUCA
B17: chr15:30001172:30001173:-_ENSG00000104067_ENST00000400011|hu_hu|motif|central (ssRNA)
RNA: GGGAGUUCUACAGUCCGACGAUCUGGUGGUCUGAAAGUUGCUGGCUUAUUCUGAGAUGGAGGUGGGUCUGGUUUGGACACGGAGGAAUUCUGAAAAUCCAAUGACACUGAAUUACCUUCACCAUGUGCUCCCUUAGAAUGUAUCAACAGAGGAUUGAGCAUCA
B18: chrX:102632674:102632675:+_ENSG00000166681_ENST00000361298|hu_hu|motif|central (ssRNA)
RNA: GGGAGUUCUACAGUCCGACGAUCGUGAUUAGAGAGCUCCCCCAUAAGGAUACGCAGACAAUUCCUCAACUGCAGCUCCCGGAGUUUUCUUCUGAUUUCUCUCAUCUCCUCCAUGAAUAUUUCCAUAUCAUCUCCAUCUCCACCCAACAGAGGAUUGAGCAUCA
B19: 11075323_11076074_1219_3pUTR_ENSG00000106443_ENST00000423760|human|control|control (ssRNA)
RNA: GGGAGUUCUACAGUCCGACGAUCAUACUGCUGAAGCCGGGCAUUGAUCCUUGCCUGUGCUUCUGGUGAUAGUUGCUUCUCUCUCUCUUGCAAAGACAUUUUACAAUAGGACUGUAGAGCCAAGUAGUUUUUUCUCUUCCACUUCAACAGAGGAUUGAGCAUCA
B20: 242283235_242285623_964_CDS_ENSG00000168385_ENST00000391971|human|control|control (ssRNA)
RNA: GGGAGUUCUACAGUCCGACGAUCAUGAAGGUCCUGGGUCACCUCCUGGAGAUCCUGCAUGUGGGUGAUGAGCAUGGUUCUCAGCUUCAGAAAGUCAUUGUGCUCUGGGUUCUCCACUUCCACAACACCCCAGGGGUAGAGGCGCAACAGAGGAUUGAGCAUCA
B21: 41533178_41533298_89_5pUTR_ENSMUSG00000061080_ENSMUST00000099761|mouse|control|control (ssRNA)
RNA: GGGAGUUCUACAGUCCGACGAUCCAUCAAAUCCAAGCAGGAGUCGGGGAGAAAGUGGAGGAACAAAUUUUCCGAAGGAAGAGUGCAAAUAUAAAAUGCUUUAAUGAUGAGGAGGCGACUGUCAAUGGCAGGGGUGCUUCCUUACAACAGAGGAUUGAGCAUCA
B22: chr5:132270174:132270175:-_ENSG00000072364_ENST00000265343|hu_mus|FALSE|FALSE (ssRNA)
RNA: GGGAGUUCUACAGUCCGACGAUCAGAAUCCCAGUUGGCAUCAGGGUCCCGAGGUGAUUUGGAGCGCUGAUGUUCCUUGCUAUGGUGAUCAUUCCCAUGAGACCUGGAAUGACUAGAACUUAAUGAAGAAACAGCCUGGGGUUUCAACAGAGGAUUGAGCAUCA

Biological target: T1, UNK ZnF1-3
Experiment: nsRBNS (natural sequence RNA bind-n-seq); RBNS binding buffer (assumed for nsRBNS): 25 mM Tris pH 7.5, 150 mM KCl, 3 mM MgCl2, 0.01% Triton X-100, 500 ug/ml BSA, 20 U/ml SUPERase-In, 4 C; UNK is unkempt and MSI1 is Musashi-1; names of the RNAs are library labels; protein concentration not given here; high values mean tight binding

Q: Which binding signal does the source give for B1 here?
A: Its binding signal is 1.5 enrichment R.

Q: How did the binding signal turn out when B2 was run?
A: The binding signal was 0.681 enrichment R.

Q: B3 was tested. Which binding signal did it give?
A: Its binding signal is 0.663 enrichment R.

Q: For B4, which binding signal is on record?
A: The binding signal was 0.994 enrichment R.

Q: With B5 as the binder, how does the binding signal read?
A: Its binding signal is 1.97 enrichment R.

Q: For B6, which binding signal is on record?
A: The binding signal was 1.62 enrichment R.

Q: For B7, which binding signal is on record?
A: The binding signal was 0.952 enrichment R.

Q: B8 was tested. Which binding signal did it give?
A: The binding signal was 1.08 enrichment R.

Q: How did the binding signal turn out when B9 was run?
A: Its binding signal is 0.673 enrichment R.

Q: B10 was tested. Which binding signal did it give?
A: Its binding signal is 0.888 enrichment R.

Q: B11 was tested. Which binding signal did it give?
A: The binding signal was 0.991 enrichment R.

Q: How did the binding signal turn out when B12 was run?
A: The binding signal was 0.959 enrichment R.

Q: How did the binding signal turn out when B13 was run?
A: Its binding signal is 0.49 enrichment R.

Q: B14 was tested. Which binding signal did it give?
A: The binding signal was 0.449 enrichment R.

Q: B15 was tested. Which binding signal did it give?
A: The binding signal was 0.972 enrichment R.

Q: How did the binding signal turn out when B16 was run?
A: Its binding signal is 0.89 enrichment R.

Q: With B17 as the binder, how does the binding signal read?
A: The binding signal was 1.02 enrichment R.

Q: For B18, which binding signal is on record?
A: The binding signal was 1.02 enrichment R.

Q: With B19 as the binder, how does the binding signal read?
A: Its binding signal is 0.568 enrichment R.

Q: For B20, which binding signal is on record?
A: The binding signal was 0.746 enrichment R.

Q: For B21, which binding signal is on record?
A: Its binding signal is 2.66 enrichment R.

Q: Which binding signal does the source give for B22 here?
A: The binding signal was 0.67 enrichment R.
